Laboratory results reported in the supplement of paper PMC8728848.
The list shows a part of the results.

Tests used:
Assay in all cases: glycan array binding signal (z-score within array); higher = stronger binding
Details in all cases: glycan notation: IUPAC condensed, linker removed
[1] = target: Fuc(a1-2)Gal(b1-4)[Fuc(a1-3)]GlcNAc(b1-2)Man(a1-3)[Fuc(a1-2)Gal(b1-4)[Fuc(a1-3)]GlcNAc(b1-2)Man(a1-6)]Man(b1-4)GlcNAc(b1-4)[Fuc(a1-6)]GlcNAc
Outline: (§1)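 From the Consortium for Functional Glycomics database, 3228 arrays were curated, keeping only those whose protein sequence was available. Binding is given as a within-array Z-score averaged across arrays sharing a protein sequence and across linkers. Negative Z-scores can be read as non-binding.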

[2] = target: Fuc(a1-2)Gal(b1-4)[Fuc(a1-3)]GlcNAc(b1-2)[Fuc(a1-2)Gal(b1-4)[Fuc(a1-3)]GlcNAc(b1-4)]Man(a1-3)[Fuc(a1-2)Gal(b1-4)[Fuc(a1-3)]GlcNAc(b1-2)Man(a1-6)]Man(b1-4)GlcNAc(b1-4)GlcNAc
Outline: as §1

[3] = target: Fuc(a1-2)Gal(b1-4)[Fuc(a1-3)]GlcNAc(b1-3)Gal(b1-4)[Fuc(a1-3)]GlcNAc
Outline: as §1

[4] = target: Fuc(a1-2)Gal(b1-4)[Fuc(a1-3)]GlcNAc(b1-3)Gal(b1-4)[Fuc(a1-3)]GlcNAc(b1-3)Gal(b1-4)[Fuc(a1-3)]GlcNAc
Outline: as §1

[5] = target: Fuc(a1-2)Gal(b1-4)[Fuc(a1-3)]GlcNAc(b1-3)GalNAc
Outline: as §1

[6] = target: Fuc(a1-2)Gal(b1-4)[Fuc(a1-3)]GlcNAc(b1-3)[Neu5Ac(a2-6)Gal(b1-4)GlcNAc(b1-6)]Gal(b1-4)Glc
Outline: as §1

[7] = target: Fuc(a1-2)Gal3S(b1-4)GlcNAc
Outline: as §1

[8] = target: Fuc(a1-2)Gal6S(b1-3)GlcNAc
Outline: as §1

[9] = target: Fuc(a1-2)Gal6S(b1-3)GlcNAc6S
Outline: as §1

Fuc(a1-2)Gal6S(b1-4)Glc = target: Fuc(a1-2)Gal6S(b1-4)Glc
Outline: as §1

[10] = target: Fuc(a1-2)Gal6S(b1-4)Glc6S
Outline: as §1

Fuc(a1-2)[Gal(a1-3)]Gal = target: Fuc(a1-2)[Gal(a1-3)]Gal
Outline: as §1

[11] = target: Fuc(a1-2)[Gal(a1-3)]Gal(b1-3)GalNAc
Outline: as §1

[12] = target: Fuc(a1-2)[Gal(a1-3)]Gal(b1-3)GalNAc(b1-3)Gal(a1-4)Gal(b1-4)Glc
Outline: as §1

[13] = target: Fuc(a1-2)[Gal(a1-3)]Gal(b1-3)GlcNAc
Outline: as §1

[14] = target: Fuc(a1-2)[Gal(a1-3)]Gal(b1-3)GlcNAc(b1-2)Man(a1-3)[Fuc(a1-2)[Gal(a1-3)]Gal(b1-3)GlcNAc(b1-2)Man(a1-6)]Man(b1-4)GlcNAc(b1-4)GlcNAc
Outline: as §1

[15] = target: Fuc(a1-2)[Gal(a1-3)]Gal(b1-3)GlcNAc(b1-2)Man(a1-3)[Fuc(a1-2)[Gal(a1-3)]Gal(b1-3)GlcNAc(b1-2)Man(a1-6)]Man(b1-4)GlcNAc(b1-4)[Fuc(a1-6)]GlcNAc
Outline: as §1

[16] = target: Fuc(a1-2)[Gal(a1-3)]Gal(b1-3)GlcNAc(b1-3)GalNAc
Outline: as §1

[17] = target: Fuc(a1-2)[Gal(a1-3)]Gal(b1-3)GlcNAc(b1-6)GalNAc
Outline: as §1

[18] = target: Fuc(a1-2)[Gal(a1-3)]Gal(b1-4)Glc
Outline: as §1

[19] = target: Fuc(a1-2)[Gal(a1-3)]Gal(b1-4)GlcNAc
Outline: as §1

[20] = target: Fuc(a1-2)[Gal(a1-3)]Gal(b1-4)GlcNAc(b1-2)Man
Outline: as §1

[21] = target: Fuc(a1-2)[Gal(a1-3)]Gal(b1-4)GlcNAc(b1-2)Man(a1-3)[Fuc(a1-2)[Gal(a1-3)]Gal(b1-4)GlcNAc(b1-2)Man(a1-6)]Man(b1-4)GlcNAc(b1-4)GlcNAc
Outline: as §1

[22] = target: Fuc(a1-2)[Gal(a1-3)]Gal(b1-4)GlcNAc(b1-2)Man(a1-3)[Fuc(a1-2)[Gal(a1-3)]Gal(b1-4)GlcNAc(b1-2)Man(a1-6)]Man(b1-4)GlcNAc(b1-4)[Fuc(a1-6)]GlcNAc
Outline: as §1

[23] = target: Fuc(a1-2)[Gal(a1-3)]Gal(b1-4)GlcNAc(b1-3)GalNAc
Outline: as §1

[24] = target: Fuc(a1-2)[Gal(a1-3)]Gal(b1-4)GlcNAc(b1-3)[Fuc(a1-2)[Gal(a1-3)]Gal(b1-4)GlcNAc(b1-6)]GalNAc
Outline: as §1

[25] = target: Fuc(a1-2)[Gal(a1-3)]Gal(b1-4)GlcNAc(b1-6)GalNAc
Outline: as §1

[26] = target: Fuc(a1-2)[Gal(a1-3)]Gal(b1-4)[Fuc(a1-3)]Glc
Outline: as §1

[27] = target: Fuc(a1-2)[Gal(a1-3)]Gal(b1-4)[Fuc(a1-3)]GlcNAc
Outline: as §1

[28] = target: Fuc(a1-2)[Gal(a1-3)]Gal(b1-4)[Fuc(a1-3)]GlcNAc(b1-3)GalNAc
Outline: as §1

[29] = target: Fuc(a1-2)[Gal(a1-4)]Gal(b1-4)GlcNAc
Outline: as §1

[30] = target: Fuc(a1-2)[GalNAc(a1-3)]Gal
Outline: as §1

[31] = target: Fuc(a1-2)[GalNAc(a1-3)]Gal(b1-3)GalNAc(a1-3)[Fuc(a1-2)]Gal(b1-4)GlcNAc
Outline: as §1

[32] = target: Fuc(a1-2)[GalNAc(a1-3)]Gal(b1-3)GalNAc(b1-3)Gal(a1-4)Gal(b1-4)Glc
Outline: as §1

[33] = target: Fuc(a1-2)[GalNAc(a1-3)]Gal(b1-3)GlcNAc
Outline: as §1

[34] = target: Fuc(a1-2)[GalNAc(a1-3)]Gal(b1-3)GlcNAc(b1-2)Man(a1-3)[Fuc(a1-2)[GalNAc(a1-3)]Gal(b1-3)GlcNAc(b1-2)Man(a1-6)]Man(b1-4)GlcNAc(b1-4)GlcNAc
Outline: as §1

[35] = target: Fuc(a1-2)[GalNAc(a1-3)]Gal(b1-3)GlcNAc(b1-2)Man(a1-3)[Fuc(a1-2)[GalNAc(a1-3)]Gal(b1-3)GlcNAc(b1-2)Man(a1-6)]Man(b1-4)GlcNAc(b1-4)[Fuc(a1-6)]GlcNAc
Outline: as §1

[36] = target: Fuc(a1-2)[GalNAc(a1-3)]Gal(b1-3)GlcNAc(b1-3)GalNAc
Outline: as §1

B1: GS13455A-bfa-343-25-343 (Bacteroides fragilis) (protein)
chain: KDEIQIVDQDTSWQMDNKYIEEDIREQLGIDPFTDLVYLGYYGNPYTQLEAINDLVNTTLVGKNELSFKVKVTKPYKEDIKVNLMKEDKLVTDFPEMAEGIPLFPSENCTFEGGVLKAGELETTVKLTLKDVEKLNNLSGYVMAIKLTMEGSHEHLAIARTRSSYFVKLNLSIRLDNIDSSNKKIEGKGFNKEISFKSDIRPDKLGSLNDGNFTANNWYTSNANNYLTIILPEKQSLKGFRLDTNTSPSGSYMLKSCRVMVETPDGNWVNHGVFDRKSMDGIAYISFKKPVECTKVRFENMMAFNGRFSVDVNEVTAFR
- glycan array binding signal (z-score) [1]: 1.01
- glycan array binding signal (z-score) [2]: -0.141
- glycan array binding signal (z-score) [3]: -0.292
- glycan array binding signal (z-score) [4]: 0.186
- glycan array binding signal (z-score) [5]: 1.05
- glycan array binding signal (z-score) [6]: -0.309
- glycan array binding signal (z-score) [7]: -0.268
- glycan array binding signal (z-score) [8]: 0.046
- glycan array binding signal (z-score) [9]: -0.073
- glycan array binding signal (z-score) (Fuc(a1-2)Gal6S(b1-4)Glc): -0.133
- glycan array binding signal (z-score) [10]: 0.254
- glycan array binding signal (z-score) (Fuc(a1-2)[Gal(a1-3)]Gal): 0.254
- glycan array binding signal (z-score) [11]: -0.263
- glycan array binding signal (z-score) [12]: -0.182
- glycan array binding signal (z-score) [13]: 0.31
- glycan array binding signal (z-score) [14]: -0.738
- glycan array binding signal (z-score) [15]: -0.117
- glycan array binding signal (z-score) [16]: -0.237
- glycan array binding signal (z-score) [17]: 0.925
- glycan array binding signal (z-score) [18]: -0.212
- glycan array binding signal (z-score) [19]: 0.862
- glycan array binding signal (z-score) [20]: 0.072
- glycan array binding signal (z-score) [21]: -0.881
- glycan array binding signal (z-score) [22]: -0.628
- glycan array binding signal (z-score) [23]: -0.803
- glycan array binding signal (z-score) [24]: 0.147
- glycan array binding signal (z-score) [25]: -0.376
- glycan array binding signal (z-score) [26]: -0.566
- glycan array binding signal (z-score) [27]: -0.105
- glycan array binding signal (z-score) [28]: 0.009
- glycan array binding signal (z-score) [29]: 0.385
- glycan array binding signal (z-score) [30]: 0.215
- glycan array binding signal (z-score) [31]: 0.278
- glycan array binding signal (z-score) [32]: -0.193
- glycan array binding signal (z-score) [33]: 0.48
- glycan array binding signal (z-score) [34]: 0.229
- glycan array binding signal (z-score) [35]: 0.207
- glycan array binding signal (z-score) [36]: 2.29
